These results are taken from patent US20250282824A1, “Inhibitors of the Wnt Signaling Pathway and Uses Thereof” (Stichting VU, priority 2021, published 2025).

SMILES strings stand for the structures. Residues, ends and D or L forms follow the SMILES beside them.

Assay [1] concerns the target T1, β-catenin/TCF-4 interaction (Homo sapiens, UniProt P35222).
T1 construct: a solution of 1 μM β-catenin (aa 1-781) and 40 nM FITC-labeled TCF-4 peptide was prepared; 3C protease recognition site (C); His6 (C); made in house; host or cells: Escherichia coli BL21 (DE3), pET-28a(+); the tracer is a synthetic peptide
T1 sequence (P35222 1-781): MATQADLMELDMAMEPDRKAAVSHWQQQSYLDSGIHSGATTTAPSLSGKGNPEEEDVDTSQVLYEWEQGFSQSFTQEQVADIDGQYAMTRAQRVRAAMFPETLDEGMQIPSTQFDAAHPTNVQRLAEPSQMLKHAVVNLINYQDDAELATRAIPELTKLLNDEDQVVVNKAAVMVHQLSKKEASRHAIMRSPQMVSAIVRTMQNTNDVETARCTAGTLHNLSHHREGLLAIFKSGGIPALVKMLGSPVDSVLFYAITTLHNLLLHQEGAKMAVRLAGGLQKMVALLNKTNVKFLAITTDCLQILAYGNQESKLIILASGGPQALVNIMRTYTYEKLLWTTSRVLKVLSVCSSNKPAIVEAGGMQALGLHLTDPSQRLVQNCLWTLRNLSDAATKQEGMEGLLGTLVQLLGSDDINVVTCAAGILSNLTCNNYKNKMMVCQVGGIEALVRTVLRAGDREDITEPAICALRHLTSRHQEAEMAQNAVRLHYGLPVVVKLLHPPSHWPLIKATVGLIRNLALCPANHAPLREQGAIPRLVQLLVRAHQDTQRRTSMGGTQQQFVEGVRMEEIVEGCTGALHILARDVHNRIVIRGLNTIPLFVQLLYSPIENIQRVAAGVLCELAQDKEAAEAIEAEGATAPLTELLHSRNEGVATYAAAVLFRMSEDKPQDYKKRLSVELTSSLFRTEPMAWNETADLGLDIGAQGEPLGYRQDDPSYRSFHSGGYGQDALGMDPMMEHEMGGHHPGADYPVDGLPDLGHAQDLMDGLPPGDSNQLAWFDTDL
Nature of the assay: FP competition of the β-catenin/TCF-4 interaction (titration and 30 μM pre-screening). The conditions noted are these: for inhibition at 30 µM: read-out: Inhibition of the TCF/β-catenin interaction, 30 μM competitor, 0% = no competitor, 100% = E-CBD at 30 μM, singlets. It is filed as binding.

Assay [2] in a line: Cellular uptake. It is filed as cell-based.
Assay [3] relates to Wnt signaling pathway. The experiment in a line: TOPFLASH reporter gene assay in HEK293T cells. On the technique in general: In a reporter assay the amount or activity of a reporter protein is the signal.

As a reminder, the IC50 is the concentration that inhibits the measured activity by half. Lower therefore signals greater potency.

On to `CC(C)C[C@@H]1NC(=O)[C@H](CS)NC(=O)[C@H](CC(=O)O)NC(=O)[C@@H]2CCCN2C(=O)[C@H]2CCCN2C(=O)[C@H](C(C)C)NC(=O)[C@H](CS)NC(=O)[C@H](CC(N)=O)NC(=O)[C@H](CCCNC(=N)N)NC(=O)[C@H]([C@@H](C)O)NC(=O)[C@H](C(C)C)NC(=O)CCNC(=O)CCNC(=O)[C@H](Cc2ccccc2)NC(=O)[C@H](C(C)C)NC(=O)[C@H](CC(C)C)NC1=O` [C-o, [βA-V-T-R-N-C-V-p-P-D-C-L-L-V-F-βA]] (HELM PEPTIDE1{[bAla].V.T.R.N.C.V.[dP].P.D.C.L.L.V.F.[bAla]}$PEPTIDE1,PEPTIDE1,1:R1-16:R2$$$V2.0), for which the inhibition at 30 µM in assay [1] was below 25%.
As for `CC(C)C[C@@H]1NC(=O)[C@H](CC(C)C)NC(=O)[C@H](CO)NC(=O)[C@H](CC(=O)O)NC(=O)[C@@H]2CCCN2C(=O)[C@H]2CCCN2C(=O)[C@H](C(C)C)NC(=O)[C@H](CC(=O)O)NC(=O)[C@H](CC(N)=O)NC(=O)[C@H](CCCNC(=N)N)NC(=O)[C@@H]2CSC/C=C/CSC[C@H](NC1=O)C(=O)N[C@@H](Cc1ccccc1)C(=O)NCCC(=O)NCCC(=O)N[C@@H](C(C)C)C(=O)N2` [A-b6, [βA-V-[C-R-N-D-V-p-P-D-S-L-L-C]-F-βA]/b6] (HELM PEPTIDE1{[bAla].V.C.R.N.D.V.[dP].P.D.S.L.L.C.F.[bAla]}|CHEM1{[C(=C\C[*:2])/C[*:1]]}$PEPTIDE1,CHEM1,3:R3-1:R1|PEPTIDE1,CHEM1,14:R3-1:R2|PEPTIDE1,PEPTIDE1,1:R1-16:R2$$$V2.0), in assay [2], the “cellular uptake” value was “comparable to the cell penetrating Tat peptide”.
For `Oc1nc(-c2ccc(C(F)(F)F)cc2)nc2c1CSCC2` [XAV939, reference compound], in assay [3] (Wnt-3a 100 ng/ml, 24 h, concentration not given), the “rel. reporter activity (positive control)” value is given as 30%.
`CC(C)C[C@@H]1NC(=O)[C@H](CC(C)C)NC(=O)[C@H](CO)NC(=O)[C@H](CC(=O)O)NC(=O)[C@@H]2CCCN2C(=O)[C@H]2CCCN2C(=O)[C@H](C(C)C)NC(=O)[C@H](CC(=O)O)NC(=O)[C@H](CC(N)=O)NC(=O)[C@H](CCCNC(=N)N)NC(=O)[C@@H]2CSCCCCSC[C@H](NC1=O)C(=O)N[C@@H](Cc1ccccc1)C(=O)NCCC(=O)NCCC(=O)N[C@@H](C(C)C)C(=O)N2` [A-b5, [βA-V-[C-R-N-D-V-p-P-D-S-L-L-C]-F-βA]/b5] (HELM PEPTIDE1{[bAla].V.C.R.N.D.V.[dP].P.D.S.L.L.C.F.[bAla]}|CHEM1{[C(CC[*:2])C[*:1]]}$PEPTIDE1,CHEM1,3:R3-1:R1|PEPTIDE1,CHEM1,14:R3-1:R2|PEPTIDE1,PEPTIDE1,1:R1-16:R2$$$V2.0): in assay [1], the IC50 lay in the range of 8.5 to 11 µM and the inhibition at 30 µM is above 50%.
With `CC(C)C[C@@H]1NC(=O)[C@H](CC(C)C)NC(=O)[C@H](CO)NC(=O)[C@H](CC(=O)O)NC(=O)[C@@H]2CCCN2C(=O)[C@H]2CCCN2C(=O)[C@H](C(C)C)NC(=O)[C@H](CC(=O)O)NC(=O)[C@H](CC(N)=O)NC(=O)[C@H](CCCNC(=N)N)NC(=O)[C@H](CS)NC(=O)[C@H](C(C)C)NC(=O)CCNC(=O)CCNC(=O)[C@H](Cc2ccccc2)NC(=O)[C@H](CS)NC1=O` [A-o, [βA-V-C-R-N-D-V-p-P-D-S-L-L-C-F-βA]] (HELM PEPTIDE1{[bAla].V.C.R.N.D.V.[dP].P.D.S.L.L.C.F.[bAla]}$PEPTIDE1,PEPTIDE1,1:R1-16:R2$$$V2.0), in assay [1], the inhibition at 30 µM is below 25%.
Consider `CC(C)C[C@@H]1NC(=O)[C@H](CC(C)C)NC(=O)[C@H](CO)NC(=O)[C@H](CC(=O)O)NC(=O)[C@@H]2CCCN2C(=O)[C@H]2CCCN2C(=O)[C@H](C(C)C)NC(=O)[C@H](CC(=O)O)NC(=O)[C@H](CC(N)=O)NC(=O)[C@H](CCCNC(=N)N)NC(=O)[C@@H]2CSCc3ccccc3CSC[C@H](NC1=O)C(=O)N[C@@H](Cc1ccccc1)C(=O)NCCC(=O)NCCC(=O)N[C@@H](C(C)C)C(=O)N2` [A-b7, [βA-V-[C-R-N-D-V-p-P-D-S-L-L-C]-F-βA]/b7] (HELM PEPTIDE1{[bAla].V.C.R.N.D.V.[dP].P.D.S.L.L.C.F.[bAla]}|CHEM1{[c1ccc(C[*:2])c(C[*:1])c1]}$PEPTIDE1,CHEM1,3:R3-1:R1|PEPTIDE1,CHEM1,14:R3-1:R2|PEPTIDE1,PEPTIDE1,1:R1-16:R2$$$V2.0), for which, in assay [1], the IC50 is 8.5 to 11 µM and the inhibition at 30 µM was above 50%.
As for `CC(C)C[C@@H]1NC(=O)[C@H](CO)NC(=O)[C@H](CC(=O)O)NC(=O)[C@@H]2CCCN2C(=O)[C@H]2CCCN2C(=O)[C@H](C(C)C)NC(=O)[C@H](CC(=O)O)NC(=O)[C@H](CC(N)=O)NC(=O)[C@H](CCCNC(=N)N)NC(=O)[C@H]([C@@H](C)O)NC(=O)[C@H](C(C)C)NC(=O)CCNC(=O)CCNC(=O)[C@H](Cc2ccccc2)NC(=O)[C@H](C(C)C)NC(=O)[C@H](CC(C)C)NC1=O` [Peptide 12, [βA-V-T-R-N-D-V-p-P-D-S-L-L-V-F-βA]] (HELM PEPTIDE1{[bAla].V.T.R.N.D.V.[dP].P.D.S.L.L.V.F.[bAla]}$PEPTIDE1,PEPTIDE1,1:R1-16:R2$$$V2.0), in assay [3] (Wnt-3a, c=20 μM, t=24 h), the “inhibition of Wnt reporter activity” value is reported as “did not display a meaningful inhibition”.
